Measured values from paper PMC4336329 (PLoS ONE, 2015).
Among all 310,000 compounds or so, about 2,200 (0.71%) showed an effect of 50% or more. Effects have a minus sign here. The list shows a part of the results.

Target: human ether-à-go-go-related gene (hERG) potassium channel (human, UniProt Q12809)
Experiment: primary screen, population patch clamp on CHO cells stably expressing hERG

human ether-à-go-go-related gene (hERG) potassium channel, sequence (Q12809 whole entry, looked up): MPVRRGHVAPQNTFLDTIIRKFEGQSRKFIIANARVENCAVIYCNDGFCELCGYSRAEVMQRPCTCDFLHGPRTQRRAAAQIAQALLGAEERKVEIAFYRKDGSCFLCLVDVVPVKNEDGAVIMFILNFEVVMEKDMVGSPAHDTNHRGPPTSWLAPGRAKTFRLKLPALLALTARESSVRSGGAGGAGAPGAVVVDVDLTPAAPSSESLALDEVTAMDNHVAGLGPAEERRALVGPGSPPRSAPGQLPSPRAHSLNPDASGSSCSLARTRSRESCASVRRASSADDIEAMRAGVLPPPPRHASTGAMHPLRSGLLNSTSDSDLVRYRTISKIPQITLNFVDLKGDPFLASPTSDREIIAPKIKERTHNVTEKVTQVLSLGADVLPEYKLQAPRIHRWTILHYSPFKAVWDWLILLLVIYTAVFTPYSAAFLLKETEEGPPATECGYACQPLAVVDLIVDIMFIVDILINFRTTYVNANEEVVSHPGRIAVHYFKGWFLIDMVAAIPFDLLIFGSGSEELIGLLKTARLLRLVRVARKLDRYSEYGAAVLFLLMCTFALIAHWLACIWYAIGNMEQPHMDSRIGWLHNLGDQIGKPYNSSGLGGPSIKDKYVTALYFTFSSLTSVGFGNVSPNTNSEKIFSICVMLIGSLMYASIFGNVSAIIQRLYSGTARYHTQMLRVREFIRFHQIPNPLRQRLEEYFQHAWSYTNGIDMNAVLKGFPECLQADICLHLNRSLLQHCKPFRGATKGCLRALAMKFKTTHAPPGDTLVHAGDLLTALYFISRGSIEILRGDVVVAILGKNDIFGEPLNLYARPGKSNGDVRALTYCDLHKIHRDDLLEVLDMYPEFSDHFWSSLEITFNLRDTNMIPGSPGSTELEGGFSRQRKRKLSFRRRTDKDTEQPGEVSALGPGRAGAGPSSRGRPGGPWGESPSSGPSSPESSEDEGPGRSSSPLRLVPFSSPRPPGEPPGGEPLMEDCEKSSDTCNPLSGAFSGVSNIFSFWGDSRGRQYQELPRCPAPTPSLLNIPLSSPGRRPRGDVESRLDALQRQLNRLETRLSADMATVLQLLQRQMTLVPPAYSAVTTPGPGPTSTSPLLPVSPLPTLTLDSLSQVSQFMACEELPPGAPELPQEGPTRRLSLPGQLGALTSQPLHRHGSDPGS

Row | SMILES | hERG current change (%, negative = inhibition) at 1uM [%]
1 | CC(OC(=O)c1cccnc1SCc1cc(=O)n2ccccc2n1)c1ccccn1 (centres unmarked) | -5.64
2 | COc1cccc(-n2c(C)nc3cc(C(=O)O)ccc32)c1 | -2.23
3 | O=C(O)C(=O)O.O=C(c1ccc([N+](=O)[O-])cc1)N1CCN(Cc2ccccc2[N+](=O)[O-])CC1 | -70.1
4 | COc1cc(NC(=O)CN2C(=O)CN(C)C2=O)c(C)cc1[N+](=O)[O-] | 19.2
5 | CN(C(=O)c1ccc(S(=O)(=O)N2CCCCC2)cc1)C1CCS(=O)(=O)C1 (centres unmarked) | -3.22
6 | CN(C(=O)c1cccs1)c1ccccc1C(=O)O | 12.2
7 | Cc1cc(C)n(-c2nc3c(c(=O)[nH]c(=O)n3C)n2CC(C)C)n1 | 5.84
8 | COc1ccc(N(CC(=O)NC2CC3CCC2C3)S(=O)(=O)c2ccc(C)cc2)cc1 (centres unmarked) | 14.7
9 | O=C(Cn1cnc2cc([N+](=O)[O-])ccc2c1=O)NC1CCS(=O)(=O)C1 (centres unmarked) | 16.4
10 | C=CCOc1cccc(C2C(C(=O)c3ccc(C)o3)=C(O)C(=O)N2CCCn2ccnc2)c1 (centres unmarked) | 14.2
11 | COCc1cc(C)nc(NCCc2ccccc2)c1C#N | 13.5
12 | O=C(C1=C[C@H](c2coc3ccccc3c2=O)C[C@H](OCCCCO)O1)N1CCN(Cc2ccc3c(c2)OCO3)CC1 | -23
13 | COCCCn1c(SCC(=O)Nc2nnc(C)s2)nnc1-c1ccoc1C | 11.3
14 | COc1ccc(N(CC(=O)NCCc2ccc(OC)c(OC)c2)S(=O)(=O)c2ccc(OC)c(OC)c2)cc1 | 10.9
15 | CCOc1ccc(-n2c(SCC(=O)NCc3ccco3)nc3c(c2=O)SCC3)cc1 | 10.3
16 | COc1c(S(=O)(=O)N2CCCCC2)ccc2c(S(=O)(=O)N3CCCCC3)cccc12 | -4.5
17 | COC(=O)c1c(C)[nH]c(C(=O)/C=C/c2ccccc2Cl)c1C | -4.75
18 | Br.COc1ccc(C2=CSC(/N=C/c3ccc(F)cc3)=NN2)cc1 | 15.4
19 | CCC1CCCCN1C(=O)c1cc(-c2ccc(Cl)c(Cl)c2)on1 (centres unmarked) | 5.22
20 | O=C(Cn1ccc([N+](=O)[O-])n1)NCCc1c[nH]c2ccccc12 | 11.8
21 | Cc1ccc(C(=O)O/N=C/C2=C(Cl)c3ccccc3CC2)cc1 | 12.9
22 | O=C1NC(=O)C2(COC(c3cccc([N+](=O)[O-])c3)OC2)S1 (centres unmarked) | 16.5
23 | CC1(C)OC(=O)C(=CNn2cnc3ccccc3c2=O)C(=O)O1 | 14.8

Row | SMILES | hERG current change (%, negative = inhibition) at 1uM [%]
24 | O=C(NC(=S)Nc1cnc2ccccc2c1)c1ccccc1 | 11
25 | CCCn1c2ccc(C)cc2c2nnc(SCCN3CCOCC3)nc21 | 19
26 | CS(C)(=O)=NS(=O)(=O)c1ccc(Cl)cc1 | 3.86
27 | Cc1cc(C)cc(OCCOc2cccc(C=C3C(=O)NC(=O)NC3=O)c2)c1 | 13.7
28 | CC(c1ccon1)N(C)Cc1cn[nH]c1-c1ccc(-c2ccccc2)cc1 (centres unmarked) | 9.01
29 | CN(Cc1nc2ccccc2n1C)S(=O)(=O)c1ccc(F)cc1 | -6.08
30 | O=S(=O)(c1ccc(C2CCCCC2)cc1)N1CCOCC1 | 2.03
31 | O=C(NCC1CCCO1)c1ccc[nH]1 (centres unmarked) | 6.43
32 | O=C1CNC(=O)/C(=C/c2cccs2)N1 | 11.8
33 | CCN1CCN(c2ccc(NC(C)=O)cc2Cl)CC1 | 10.3
34 | CCCCn1c(N)c(N(CCOC)C(=O)CCC2CCCCC2)c(=O)[nH]c1=O | 15
35 | COc1nnc(OC)c2ccccc12 | 9.19
36 | CS(=O)(=O)NNP(=O)(NNS(C)(=O)=O)NC(=O)c1ccccc1 | -6.06
37 | Cc1cccc(NC(=O)C2CCN(S(=O)(=O)c3cccc4nonc34)CC2)c1 | 8.1
38 | CCC(Sc1ncccn1)C(=O)Nc1cc(C)on1 (centres unmarked) | 14.4
39 | c1ccc(CSc2nccc(-c3ccco3)n2)cc1 | 7.49
40 | CCOC(=O)Cn1c(C)[n+](CC(=O)c2ccccc2)c2ccccc21.[Br-] | 13.1
41 | CC(OC(=O)CN1C(=O)c2ccccc2C1=O)C(=O)NC1CCCCC1C (centres unmarked) | 9.1
42 | CC1CCCCN1C(=O)Nc1cccc(Cl)c1 (centres unmarked) | -1.17
43 | CCOc1ccc(NS(=O)(=O)c2cc(C(=O)NCCCN3CCCC3=O)ccc2C)cc1 | 9.73
44 | CSc1ccccc1NC(=O)COC(=O)c1c[nH]c(=O)[nH]c1=O | 11.2
45 | CC(OC(=O)CNC(=O)c1ccco1)C(=O)Nc1ccc(Cl)cn1 (centres unmarked) | 10.4
46 | CC1(C)CC(=O)C=C(Nc2ccccc2N)C1 | 3.42

Row | SMILES | hERG current change (%, negative = inhibition) at 1uM [%]
47 | COc1ccc2c(c1)CCC(C)N2S(=O)(=O)c1ccc(C2CNC(=O)C2)cc1 (centres unmarked) | 6.05
48 | O=C(CCCn1c(=O)[nH]c2cc(Cl)ccc2c1=O)NC1CCCCCC1 | 0.147
49 | Cc1nn(-c2ccc(F)cc2)c(Cl)c1/C=N/NC(=O)c1cccc(S(=O)(=O)N2CCCC2)c1 | 7.64
50 | Cc1ccc(-c2nc3ccccc3[nH]2)cc1NC(=O)c1sc2cc(Cl)ccc2c1Cl | 22.3
51 | CC(CC(=O)Nc1cccc(F)c1)S(=O)(=O)c1ccc2c(c1)NC(=O)CO2 (centres unmarked) | 3.18
52 | Cc1cc(C)c(C)c(S(=O)(=O)N2CCN(c3ccccn3)CC2)c1C | 8.38
53 | CCOc1ccc(NC(=O)CN(C)C(=O)COc2cccc(CC)c2)cc1OCC | 0.0718
54 | CC(C)n1c(NCCc2ccccc2)nc2c1c(=O)n(C)c(=O)n2C | 9.37
55 | Cc1ccc(C2CC(c3cccc(NS(C)(=O)=O)c3)=NN2S(C)(=O)=O)cc1 (centres unmarked) | -8.33
56 | Cc1nnc(NC(=O)CSc2nc(C(C)C)nc3ccccc23)s1 | 6.82
57 | Cc1c(O)ccc(C(=O)COc2ccccc2F)c1O | -0.438
58 | CCOC(=O)CN1C(=O)SC(CC(=O)Nc2nccs2)C1=O (centres unmarked) | 12.1
59 | COc1cc2c(cc1OC)CN(C1CCCN(Cc3cc(Cl)ccc3O)C1)CC2 (centres unmarked) | 2.35
60 | O=C(C[n+]1cccc2ccccc21)c1ccc([N+](=O)[O-])cc1.[Br-] | -53.8
61 | CCC(Sc1nc(C)cc(C)n1)C(=O)Nc1ccc(Cl)cn1 (centres unmarked) | -2.98
62 | CCOc1ccc(NC(=O)C(Cc2ccccc2)N2C(=O)c3cccc4cccc(c34)C2=O)cc1 (centres unmarked) | 14.6
63 | CC(C)Oc1ccc(C(=O)CCN2CCCCC2)cc1 | -9.8
64 | O=C(c1cccnc1)N1CCN(S(=O)(=O)c2ccc3ccccc3c2)CC1 | -20.9
65 | CN(C)S(=O)(=O)c1ccc2c(c1)nc(CCC(=O)NCc1ccc(Cl)cc1)n2C | -2.33
66 | Cc1cc(/C=C(\C#N)C(=O)NCc2ccco2)c(C)n1-c1ccc(C(=O)O)cc1 | 13.5
67 | CCOC(=O)c1c(NC(=O)CSc2nnc(C)s2)sc2c1CCN(C)C2 | -13.6
68 | CCOc1ccc(S(=O)(=O)NC(Cc2c[nH]c3ccccc23)C(=O)O)cc1 (centres unmarked) | 10.9
69 | N#Cc1ccc(CSc2nnc(Nc3ccccc3)s2)cc1 | 10.2

Row | SMILES | hERG current change (%, negative = inhibition) at 1uM [%]
70 | O=C(NCC(c1ccco1)N1CCCCC1)c1cc2c(s1)CCCC2 (centres unmarked) | 16.8
71 | O=C1CS/C(=N\NC(=O)c2ccccc2)N1 | 12.6
72 | CCCn1cnc2cc(NCc3ccc(Br)cc3)ccc21 | -5.04
73 | CCOC(=O)C1(CC2CCCCO2)CCN(Cc2nc3ccccc3[nH]2)CC1 (centres unmarked) | -1.68
74 | COc1cc(/C=N/NC(=S)NC2CC3C=CC2C3)cc(OC)c1OC (centres unmarked) | 8.93
75 | Cc1cc(NC(=O)c2cnn3c(C(F)F)cc(-c4ccccc4)nc23)no1 | -0.0889
76 | Fc1ccccc1COc1ccc(/C=N/NC(=S)NCc2ccccc2)cc1 | 8.87
77 | CC1CCCCC1NC(=O)Cn1[nH]c(=O)c2ccccc2c1=O (centres unmarked) | -0.249
78 | CC(C)CC(=O)NC(=S)Nc1cc(C(F)(F)F)ccc1N1CCOCC1 | 12.3
79 | CC(NCc1cccs1)C(=O)Nc1cc(Cl)cc(Cl)c1 (centres unmarked) | 6.71
80 | Cc1ccc2occ(/C=N/NC(N)=S)c(=O)c2c1 | 12
81 | CCCCCCN1C=C/C(=C\C=C(C#N)C#N)c2ccccc21 | -2.75
82 | CN1C(=O)NC2C1N(S(C)(=O)=O)CCN2S(C)(=O)=O (centres unmarked) | 16.4
83 | Cc1ccc2c(c1)-c1c(ssc1=S)C(C)(C)N2C(=O)CN1C(=O)c2ccccc2C1=O | 16.3
84 | COc1ccc(CN2C(=O)c3cccnc3C2=O)cc1S(=O)(=O)N1CCOc2ccc(Cl)cc21 | 7.25
85 | Cc1ccccc1NC(=O)Cn1c([N+](=O)[O-])cnc1C | 21.1
86 | Cc1ccc(-c2noc(-c3ccccc3C(=O)N3CCCC3)n2)cc1 | -1.86
87 | CC(C(=O)O)N1CCCCC1.Cl (centres unmarked) | -4.62
88 | COc1ccc(C(=O)COc2ccccc2C#N)cc1 | -0.403
89 | COc1ccc(/C=N/NC(=O)CN(C2=NS(=O)(=O)c3ccccc32)c2ccccc2)cc1OC | 1.67
